# Data: the supplement of paper PMC4466236
# Over roughly 33,000 sequences, “E-score (dimensionless, -0.5 to 0.5)” has its median near -0.058; the highest 2% begin near 0.35. The list shows a part of the results.
# Test system: MvaT
# Test: PBM 8-mer E-score (mean of HK and ME arrays) (E-score (dimensionless, -0.5 to 0.5)); higher = stronger relative binding preference; most listed sequences are background and not binding sites
# Outline: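 Full-length P. aeruginosa MvaT carrying an N-terminal glutathione S-transferase tag was tested by protein binding microarray following a previously described protocol. Two universal double-stranded 60-mer arrays, ME and HK, were used, each with a constant 25-mer primer region and a variable 35-mer region covering all 8-mers. The rank-based E-score is the mean of the two arrays, parsed with a custom script. Its range runs from -0.5 to 0.5 for each 8-mer.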
row,Sequence,PBM 8-mer E-score
1,GGCTCTAC,-0.167
2,GGAACACC,-0.11
3,AGAACTAA,0.268
4,ATCGACGG,-0.139
5,GACCCTCC,-0.19
6,TCAACGCA,0.047
7,GCAACCAA,0.0658
8,CTTCCCAC,-0.159
9,CGTAGAGC,-0.145
10,CCATTCGA,-0.0955
11,GACGGTGA,-0.0997
12,AGCGGAGC,-0.214
13,GGGCGTTA,-0.0456
14,GTCCGACA,-0.115
15,TAGTCTGA,0.0401
16,CGGACACC,-0.168
17,CAGGAGGG,-0.258
18,GTCCCATA,-0.05
19,ATGATTTA,0.18
20,ACACCGAC,-0.114
21,GGCAAATA,0.279
22,CATCGGGA,-0.163

row,Sequence,PBM 8-mer E-score
1,CTCTCATC,-0.243
2,CCCGGATA,-0.0749
3,CGTCCACA,-0.2
4,CCGCCGCA,-0.302
5,CGGATCAA,-0.0667
6,AACATTGC,0.0199
7,CCTCCCCA,-0.292
8,AGTAACCG,0.0201
9,CGTTGGAA,-0.198
10,CAATGAAA,0.00551
11,AACTCAGC,0.0876
12,CGTAGGGA,-0.205
13,ACGGACAG,-0.161
14,ACCATTCC,-0.0127
15,AACGTACC,-0.048
16,AGCAAGGG,-0.169
17,GAGCCGGA,-0.254
18,AAAGAACG,0.0931
19,CTTTGTAA,0.119
20,CATAGCAG,-0.049
21,GGTCGACA,-0.0437
22,AGATATAG,0.208

row,Sequence,PBM 8-mer E-score
1,AGGTCTAG,-0.194
2,ACGCGAGT,-0.0951
3,TGTCTGAA,-0.0723
4,GATACCAC,-0.0597
5,ACGAGCTC,-0.191
6,CACAAGAA,-0.049
7,ATAGTGTA,0.269
8,GGGATACC,-0.17
9,AAGCAAAC,0.051
10,AAGCTTCT,-0.0432
11,AGTTTTCA,0.058
12,AGGATGGG,-0.229
13,ATGCTTTG,-0.0104
14,AGGACCCT,-0.235
15,CGTAAAAA,0.133
16,AGACACAA,-0.0303
17,GTGAATAA,0.243
18,CCTCTACC,-0.233
19,ACCTTTCT,-0.0403
20,ATAAATGC,0.279
21,CTTGTGCC,-0.0486
22,ATAATTAT,0.467

row,Sequence,PBM 8-mer E-score
1,ATTGTATC,0.144
2,ATCAACCG,-0.104
3,CCCCAGGC,-0.307
4,ACAGAGGG,-0.132
5,ATTGGGAC,0.00917
6,ACACTGCC,-0.148
7,CTCACGGA,-0.101
8,CTCTCGTC,-0.167
9,CGCACATC,-0.00869
10,GAAGTGCC,-0.181
11,AATGGCCG,-0.0953
12,ATATCGTG,0.234
13,AAGGAACA,-0.115
14,GTCATCCA,-0.138
15,ATTCGGCC,-0.146
16,GGGATTAC,-0.101
17,CTCAGAGA,-0.0944
18,TGGTTAAA,0.187
19,ACTTTCCA,0.209
20,CATTTAGA,0.152
21,TATGCATA,0.171
22,ACGTGTCC,-0.0234

row,Sequence,PBM 8-mer E-score
1,GCTCAACC,-0.107
2,GAAATTGA,0.233
3,AGTAAGAA,0.233
4,AAGAGAAA,0.0589
5,CTAGCTGA,-0.108
6,AGTTATCC,0.145
7,TGCGGGAA,-0.0799
8,AAGACCTG,-0.182
9,AAAGCGAG,0.0339
10,GCATTCTA,-0.0392
11,CGAAAGGA,-0.263
12,AAAGCACG,-0.107
13,CACCCCCA,-0.231
14,AACCGCTG,-0.217
15,AATACCAG,0.0624
16,CCAAACAC,0.111
17,GCGTGGGA,-0.265
18,GGGCCGGA,-0.315
19,ATACCAGA,-0.0239
20,ACCAGACG,-0.141
21,GGTGCAAA,0.0377
22,ACCCTCCT,-0.239
